# Reference: the supplement of paper PMC3334620
# The full ranking holds about 33,000 sequences; the median of “E-score (-0.5 to 0.5)” is about -0.054, and the highest 2% start at about 0.35. Some of the results follow.
# Target: T1, Stb5 (UniProt P38699)
# T1 sequence: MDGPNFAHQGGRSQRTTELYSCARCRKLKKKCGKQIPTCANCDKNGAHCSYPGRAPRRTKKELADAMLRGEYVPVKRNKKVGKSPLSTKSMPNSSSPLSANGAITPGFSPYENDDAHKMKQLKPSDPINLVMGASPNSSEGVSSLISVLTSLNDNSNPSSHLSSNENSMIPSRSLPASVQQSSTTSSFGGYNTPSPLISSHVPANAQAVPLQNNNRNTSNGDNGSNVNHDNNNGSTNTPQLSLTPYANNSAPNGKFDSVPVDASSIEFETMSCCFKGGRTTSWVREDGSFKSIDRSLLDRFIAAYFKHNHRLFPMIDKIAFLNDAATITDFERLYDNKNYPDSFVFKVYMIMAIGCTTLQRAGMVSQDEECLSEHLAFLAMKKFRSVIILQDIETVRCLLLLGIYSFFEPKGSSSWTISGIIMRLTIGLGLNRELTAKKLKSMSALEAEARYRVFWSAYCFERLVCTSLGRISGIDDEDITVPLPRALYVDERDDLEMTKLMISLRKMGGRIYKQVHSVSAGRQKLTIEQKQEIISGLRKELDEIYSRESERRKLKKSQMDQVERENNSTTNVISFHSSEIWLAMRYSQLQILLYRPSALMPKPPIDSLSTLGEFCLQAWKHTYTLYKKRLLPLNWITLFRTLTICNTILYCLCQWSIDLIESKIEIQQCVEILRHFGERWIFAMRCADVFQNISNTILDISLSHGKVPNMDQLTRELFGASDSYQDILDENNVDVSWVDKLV
# Assay: PBM E-score (8-mer binding enrichment) (E-score (-0.5 to 0.5)); higher = stronger / more preferred TF binding; most listed sequences are background and not binding sites
# Details: protein concentration: 200 nM; construct: GST-full length
# Protocol: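 Universal 'all 10-mer' protein binding microarrays (Agilent AMADID 015681) probed with GST-tagged S. cerevisiae TFs (full-length or DBD) made by in vitro transcription/translation (PURExpress), about 100-200 nM. Bound TF was detected with fluorescent anti-GST. Each ungapped 8-mer (which stands for itself and its reverse complement) is scored by the PBM enrichment score (E-score), a modified Wilcoxon-Mann-Whitney statistic from -0.5 to +0.5, computed with the Universal PBM Analysis Suite. Scale: above 0.35 generally sequence-specific binding.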
row,Sequence,PBM E-score
1,CGGGCCGC,0.195
2,GACGTTGA,-0.0865
3,ACAACTGG,-0.043
4,TTCTAGAA,0.0589
5,ACGGGTCC,0.136
6,ATTACCAG,-0.00345
7,ACATCTCA,-0.186
8,ATAAGACG,-0.111
9,ACCGCGCG,0.335
10,TATCCTGA,-0.165
11,CGTGACTC,-0.0673
12,ATCAAAAA,-0.105
13,GATATCCA,-0.16
14,CGTCACAC,-0.0536
15,CCCTCCAC,-0.135
16,CAGCAGGG,-0.0502
17,GATCAATA,-0.00908
18,CAAGTAGC,-0.0947
19,ATAATTCG,0.0966
20,CGTCCACG,0.101
21,AGCTTTTA,-0.0402
22,CGGGCTAC,-0.00212

row,Sequence,PBM E-score
1,CTAACTGA,-0.00089
2,GCGACGCA,0.0501
3,TGTACTAA,-0.0713
4,ACCATGGA,-0.182
5,CGTGTCTA,-0.0149
6,GCGTGGAC,0.0763
7,ACGCGAAC,-0.196
8,GTGGTCAA,-0.291
9,GAAATACA,-0.136
10,CGAGATAC,0.0896
11,CTCTGGGA,-0.104
12,AGTGGGCA,-0.0991
13,AGTCCACC,0.0594
14,AAGAAGAG,-0.141
15,TGAGCACA,-0.208
16,CAATTCAC,-0.0252
17,CCTCACGC,-0.126
18,ACGTACCT,-0.374
19,AATTCCGT,0.267
20,CCCCGACA,0.412
21,ACGCATGA,-0.175
22,CGGTGCAA,0.348

row,Sequence,PBM E-score
1,CTCACCAG,-0.12
2,ACCAAGTC,0.0973
3,TGCCGCAA,0.193
4,TATGAGAA,-0.141
5,AGGAACAT,-0.318
6,AGAAACTA,-0.242
7,CTCAGCTA,-0.177
8,CAGCGAAA,-0.0202
9,CACTTTAC,-0.083
10,ATTAAGGC,0.0694
11,AGGACGCC,-0.073
12,CGTCTAAC,0.0919
13,CTAATCAA,0.0172
14,GGTTACGA,-0.0527
15,ATGGGGTG,-0.183
16,GTGGCCTA,-0.157
17,CCCTTTCA,-0.091
18,ACATTATA,-0.0212
19,CTCTTCCA,-0.0723
20,GCTAATAC,0.212
21,ATTACAAG,-0.0874
22,CACGGGGA,0.319

row,Sequence,PBM E-score
1,ATGAATCA,-0.182
2,GACAAGTC,-0.142
3,ATAACGGG,0.187
4,TTGATAAA,0.0862
5,CCGTATCA,0.145
6,CTGCAGGA,-0.0496
7,CATACACG,-0.181
8,CCATAAAC,-0.00805
9,GTAAGCGA,-0.237
10,CAGGTAAG,0.0157
11,CGAGCTCA,0.0513
12,AGGCGGTA,0.287
13,AATAGCGT,0.179
14,GAATGACA,-0.252
15,TCCGAGAA,0.0847
16,GGTCCCAC,0.0784
17,GGGTGGCA,-0.14
18,AAGAATGT,-0.182
19,CGACCCGA,0.117
20,CCAGGCGG,0.28
21,AGACGCGC,-0.127
22,AGGTCGAA,-0.127

row,Sequence,PBM E-score
1,ACTAAACC,0.288
2,ACGAGTGC,-0.0871
3,CCCACCTA,-0.0465
4,TATAACGA,-0.0284
5,ATCGGCTA,0.102
6,CAGAATCC,-0.0711
7,CCGTTGAA,0.104
8,CATATAGC,0.0431
9,GCGTAACC,-0.0202
10,ATGGTTAC,-0.233
11,CGCCACCA,0.0934
12,ACAGTAAA,-0.0941
13,AAGGGCAG,-0.293
14,CGACTTAC,0.0696
15,GGATTGGA,-0.103
16,GAGTGACC,-0.0936
17,GGCAATTA,0.163
18,ATACCGGC,0.304
19,CTGTTTAA,0.14
20,AATCGCAA,-0.0633
21,AGTACGGG,0.0873
